# The antibiotic and cytotoxicity screens of Wong et al. (2023)
# The other results are listed elsewhere or left out.
# What was measured:
# HSkMC = human skeletal muscle cells; assay: cytotoxicity call (relative viability < 0.9); conditions: 10 µM
# HepG2 = assay: cytotoxicity call (relative viability < 0.9); conditions: 10 µM
# S. aureus RN4220 = assay: growth inhibition call (relative growth <= 0.2); conditions: 50 µM
SMILES,cytotoxicity call (HSkMC),cytotoxicity call (HepG2),growth inhibition call (S. aureus RN4220)
C[C@@H]1CN([C@H](C)CO)C(=O)c2cccc(NC(=O)C3CCOCC3)c2O[C@@H]1CN(C)S(=O)(=O)c1ccc(Cl)cc1,inactive,inactive,inactive
CC(C)C[C@H](N)C(=O)N[C@@H](C)C(=O)O,inactive,active,inactive
CC(=O)O[C@H]1CC[C@]2(C)[C@H]3CC[C@@]4(C)[C@H](c5ccoc5)OC(=O)[C@H]5O[C@]54[C@]3(C)[C@H](OC(C)=O)C[C@H]2C1(C)C,inactive,inactive,inactive
C[C@@H]1CN([C@H](C)CO)C(=O)Cc2cc(NC(=O)Cc3ccccc3)ccc2O[C@@H]1CN(C)S(=O)(=O)c1cccs1,inactive,inactive,inactive
C[C@H](CO)N1C[C@H](C)[C@H](CN(C)Cc2ccccc2)OCCCC[C@H](C)Oc2ccc(NC(=O)CCC(F)(F)F)cc2C1=O,inactive,inactive,inactive
Cc1noc(C)c1NC(=O)N(C)C[C@@H]1Oc2c(NC(=O)c3ccncc3)cccc2C(=O)N([C@@H](C)CO)C[C@@H]1C,inactive,inactive,inactive
COc1ccc(S(=O)(=O)Nc2ccc3c(c2)C(=O)N([C@H](C)CO)C[C@H](C)[C@H](CN(C)C(=O)Nc2c(C)noc2C)O3)cc1,inactive,inactive,inactive
COc1ccc(S(=O)(=O)N(C)C[C@H]2OCCCC[C@@H](C)Oc3ccc(NC(=O)Nc4ccc(F)cc4)cc3C(=O)N([C@@H](C)CO)C[C@H]2C)cc1,inactive,inactive,inactive
CC(C)CC#Cc1ccc2c(c1)O[C@H](CN(C)C(=O)C1CCOCC1)[C@@H](C)CN([C@H](C)CO)S2(=O)=O,inactive,inactive,inactive
CCCCCCC#C[Si](O[C@H](c1ccccc1)c1cn(Cc2cccc(Cl)c2)nn1)(C(C)C)C(C)C,inactive,inactive,inactive
C[C@@H]1CN([C@H](C)CO)S(=O)(=O)c2ccc(C#Cc3ccncc3)cc2O[C@@H]1CN(C)S(=O)(=O)c1ccc(F)cc1,inactive,active,inactive
C[C@@H]1CCCCO[C@H](CN(C)C(=O)Nc2ccc3c(c2)OCO3)[C@H](C)CN([C@@H](C)CO)C(=O)c2cc(NC(=O)c3ccncc3)ccc2O1,inactive,inactive,inactive
Cc1noc(C)c1S(=O)(=O)N(C)C[C@@H]1Oc2ccc(NS(=O)(=O)c3ccc(F)cc3)cc2CC(=O)N([C@@H](C)CO)C[C@H]1C,inactive,inactive,inactive
Cc1noc(C)c1NC(=O)Nc1ccc2c(c1)C(=O)N([C@H](C)CO)C[C@H](C)[C@@H](CN(C)S(=O)(=O)c1ccccc1)O2,inactive,inactive,inactive
CN(C)CCCNC(=O)C[C@H]1CC[C@H]2[C@@H](COC[C@H](O)CN2S(=O)(=O)c2ccc(F)cc2)O1,inactive,inactive,inactive
C[C@@H](NC(=O)C[C@H]1C=C[C@H](NC(=O)CN2CCOCC2)[C@@H](CO)O1)c1ccccc1,inactive,inactive,inactive
CC(C)CC#Cc1cnc2c(c1)C(=O)N([C@H](C)CO)C[C@H](C)[C@@H](CN(C)S(=O)(=O)c1ccccc1)O2,inactive,inactive,inactive
O=C1OCCC=C[C@H]2O[C@@]34C=CCN(c5ccc(Cl)cc5)C(=O)[C@H]3N(CCCCCCO)C(=O)[C@@H]4[C@@H]12,inactive,inactive,inactive
C[C@H](O)[C@H](O)[C@@H](O)[C@@H](O)/C=N/NC(=O)CCCCCCC(=O)NO,inactive,inactive,inactive
C[C@@H]1CCCCO[C@H](CN(C)C(=O)Nc2ccc(C(F)(F)F)cc2)[C@@H](C)CN([C@H](C)CO)C(=O)c2cc(N(C)C)ccc2O1,inactive,inactive,inactive

SMILES,cytotoxicity call (HSkMC),cytotoxicity call (HepG2),growth inhibition call (S. aureus RN4220)
C[C@@H]1CN([C@@H](C)CO)C(=O)c2cc(NC(=O)c3ccccc3)ccc2O[C@@H](C)CCCCO[C@H]1CN(C)S(=O)(=O)c1ccc(Cl)cc1,inactive,active,inactive
COc1ccc(S(=O)(=O)Nc2ccc3c(c2)C(=O)N([C@H](C)CO)C[C@@H](C)[C@H](CN(C)C(=O)Nc2cccc4ccccc24)OCCCC[C@@H](C)O3)cc1,inactive,inactive,inactive
Cc1noc(C)c1NC(=O)N(C)C[C@@H]1OCCCC[C@@H](C)Oc2ccc(NS(=O)(=O)c3ccc(F)cc3)cc2C(=O)N([C@@H](C)CO)C[C@H]1C,inactive,inactive,inactive
C[C@@H]1CCCCO[C@@H](CN(C)C(=O)Nc2ccccc2)[C@H](C)CN([C@H](C)CO)C(=O)c2cc(NC(=O)Cc3ccccc3)ccc2O1,inactive,inactive,inactive
Cc1noc(C)c1S(=O)(=O)N(C)C[C@H]1Oc2ccc(NC(=O)CCC(F)(F)F)cc2CC(=O)N([C@H](C)CO)C[C@@H]1C,inactive,inactive,inactive
CC(C)NC(=O)N[C@H]1C=C[C@@H](CC(=O)NCCN2CCCC2)O[C@@H]1CO,inactive,inactive,inactive
COc1ccc(CNC(=O)C[C@H]2CC[C@@H]3[C@H](COc4ccc(NC(=O)C5CC5)cc4C(=O)N3C)O2)cc1,inactive,inactive,inactive
COc1ccc(CCNC(=O)[C@@H]2c3ccccc3C(=O)N(CC34CC5CC(CC(C5)C3)C4)[C@H]2c2ccc(CO)cc2)cc1,inactive,inactive,inactive
CCCCCCc1nc(CCCc2cc3c(c(CCCCCC)n2)[Si](C(C)C)(C(C)C)OC3)cc2c1[Si](C(C)C)(C(C)C)OC2,inactive,inactive,inactive
C[C@@H]1CN([C@H](C)CO)C(=O)Cc2cc(NS(=O)(=O)c3ccccc3)ccc2O[C@H]1CN(C)Cc1ccc2c(c1)OCO2,inactive,inactive,inactive
COc1ccc(NC(=O)Nc2ccc3c(c2)C(=O)N([C@H](C)CO)C[C@H](C)[C@H](CN(C)C(=O)Nc2cccc4ccccc24)O3)cc1,inactive,inactive,inactive
Cc1noc(C)c1NC(=O)Nc1ccc2c(c1)C(=O)N([C@H](C)CO)C[C@@H](C)[C@H](CN(C)C(=O)Nc1ccc(F)cc1)OCCCC[C@H](C)O2,inactive,inactive,inactive
C[C@H](CO)N1C[C@H](C)[C@@H](CN(C)Cc2ccccc2)OCCCC[C@H](C)Oc2ccc(NC(=O)Nc3ccc(C(F)(F)F)cc3)cc2C1=O,active,active,inactive
CN[C@@H](C)C(=O)N[C@H]1CN(C(=O)CC(C)C)CC[C@H]2CC[C@@H](C(=O)NC(c3ccccc3)c3ccccc3)N2C1=O,inactive,active,inactive
C[C@@H](C(=O)N(C)C[C@@H]1OCc2ccccc2-c2c(n(C)c3ccccc23)C(=O)N([C@@H](C)CO)C[C@@H]1C)c1ccccc1,inactive,inactive,inactive
C[C@H]1CN([C@@H](C)CO)S(=O)(=O)c2ccc(C3=CCCC3)cc2O[C@@H]1CN(C)S(=O)(=O)c1ccc(F)cc1,inactive,inactive,inactive
C[C@@H]1CCCCO[C@H](CN(C)Cc2ccc(C(=O)O)cc2)[C@@H](C)CN([C@@H](C)CO)C(=O)c2cc(NC(=O)c3ccccc3)ccc2O1,inactive,inactive,inactive
COc1ccc(OC)c(CCNC(=O)CN)c1,inactive,inactive,inactive
Cc1ccc(S(=O)(=O)Nc2ccc3c(c2)CC(=O)N([C@@H](C)CO)C[C@@H](C)[C@@H](CN(C)S(=O)(=O)c2cccs2)O3)cc1,inactive,inactive,inactive
Cc1noc(C)c1NC(=O)Nc1cccc2c1O[C@H](CN(C)S(C)(=O)=O)[C@H](C)CN([C@H](C)CO)C2=O,inactive,inactive,inactive
